According to article PMC10965988:
These are yes or no findings as the source states them, for the method shown. In cells and extracts the contact can be indirect. Some entries that bind do so weakly or less than the wild type. One block for each substance: values may come before it.

Chains of the proteins cited; added tags and fusions are not shown. Lines headed by an entry give the natural chain unless they say otherwise; changes in a name come on top. A line that says so, or that is headed by a name, gives the form on record, which may keep a tag or linker. Residues count along the entry.
UniProt P16234: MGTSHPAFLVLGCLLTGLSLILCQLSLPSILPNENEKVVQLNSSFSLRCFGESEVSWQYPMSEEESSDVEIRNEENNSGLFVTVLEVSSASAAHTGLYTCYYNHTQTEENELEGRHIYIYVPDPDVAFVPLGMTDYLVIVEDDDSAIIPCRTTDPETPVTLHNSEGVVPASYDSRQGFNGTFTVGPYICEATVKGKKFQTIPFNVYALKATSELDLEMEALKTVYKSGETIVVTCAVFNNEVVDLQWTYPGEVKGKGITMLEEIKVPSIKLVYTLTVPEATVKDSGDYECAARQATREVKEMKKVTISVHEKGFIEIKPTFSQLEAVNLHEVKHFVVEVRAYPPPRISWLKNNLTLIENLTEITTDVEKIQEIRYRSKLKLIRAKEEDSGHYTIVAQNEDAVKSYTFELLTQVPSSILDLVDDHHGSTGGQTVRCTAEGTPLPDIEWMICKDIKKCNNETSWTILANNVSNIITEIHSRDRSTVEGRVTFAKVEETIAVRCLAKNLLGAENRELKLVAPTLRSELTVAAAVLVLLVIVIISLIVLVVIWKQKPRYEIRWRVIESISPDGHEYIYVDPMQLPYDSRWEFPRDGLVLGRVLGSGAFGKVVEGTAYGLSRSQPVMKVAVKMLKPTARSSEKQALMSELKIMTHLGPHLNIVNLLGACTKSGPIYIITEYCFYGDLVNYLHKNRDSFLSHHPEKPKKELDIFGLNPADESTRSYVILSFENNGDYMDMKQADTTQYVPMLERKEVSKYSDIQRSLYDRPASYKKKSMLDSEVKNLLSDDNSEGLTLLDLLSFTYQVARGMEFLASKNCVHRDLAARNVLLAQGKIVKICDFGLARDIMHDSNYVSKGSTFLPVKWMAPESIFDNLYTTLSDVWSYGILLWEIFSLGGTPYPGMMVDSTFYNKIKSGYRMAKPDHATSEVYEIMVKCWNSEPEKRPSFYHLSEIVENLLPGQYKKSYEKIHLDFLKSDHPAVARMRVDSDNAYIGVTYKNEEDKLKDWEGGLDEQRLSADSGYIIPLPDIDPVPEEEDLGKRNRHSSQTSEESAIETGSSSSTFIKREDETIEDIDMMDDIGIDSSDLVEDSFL
PDGFRα K385I truncated after residue R979, fused to nanoluciferase or HaloTag (P16234, form named): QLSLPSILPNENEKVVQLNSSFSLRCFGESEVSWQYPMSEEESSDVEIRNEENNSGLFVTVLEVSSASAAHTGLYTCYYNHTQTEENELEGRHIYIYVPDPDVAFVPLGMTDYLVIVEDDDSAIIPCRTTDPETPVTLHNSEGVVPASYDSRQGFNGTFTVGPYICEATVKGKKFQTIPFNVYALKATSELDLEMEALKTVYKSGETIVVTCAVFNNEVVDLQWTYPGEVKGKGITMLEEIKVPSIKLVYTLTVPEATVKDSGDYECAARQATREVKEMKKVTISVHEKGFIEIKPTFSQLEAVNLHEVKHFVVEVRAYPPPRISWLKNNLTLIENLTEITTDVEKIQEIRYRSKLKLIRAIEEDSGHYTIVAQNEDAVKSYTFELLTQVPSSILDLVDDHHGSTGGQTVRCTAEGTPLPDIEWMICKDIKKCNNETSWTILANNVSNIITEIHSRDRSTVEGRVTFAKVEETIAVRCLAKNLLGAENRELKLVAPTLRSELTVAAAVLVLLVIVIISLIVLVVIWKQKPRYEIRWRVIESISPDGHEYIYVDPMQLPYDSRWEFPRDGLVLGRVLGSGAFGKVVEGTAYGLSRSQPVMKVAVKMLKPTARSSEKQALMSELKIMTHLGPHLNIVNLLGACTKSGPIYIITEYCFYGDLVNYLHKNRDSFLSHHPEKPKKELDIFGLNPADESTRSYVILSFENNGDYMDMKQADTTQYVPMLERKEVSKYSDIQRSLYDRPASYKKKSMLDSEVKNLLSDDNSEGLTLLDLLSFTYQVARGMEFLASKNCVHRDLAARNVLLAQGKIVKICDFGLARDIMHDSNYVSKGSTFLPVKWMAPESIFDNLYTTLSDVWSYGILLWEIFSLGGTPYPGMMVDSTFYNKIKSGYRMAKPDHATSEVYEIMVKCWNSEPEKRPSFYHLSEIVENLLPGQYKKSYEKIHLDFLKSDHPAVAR
platelet-derived growth factor receptor alpha (PDGFRα) K385L, HA- and MYC-tagged (P16234, form named): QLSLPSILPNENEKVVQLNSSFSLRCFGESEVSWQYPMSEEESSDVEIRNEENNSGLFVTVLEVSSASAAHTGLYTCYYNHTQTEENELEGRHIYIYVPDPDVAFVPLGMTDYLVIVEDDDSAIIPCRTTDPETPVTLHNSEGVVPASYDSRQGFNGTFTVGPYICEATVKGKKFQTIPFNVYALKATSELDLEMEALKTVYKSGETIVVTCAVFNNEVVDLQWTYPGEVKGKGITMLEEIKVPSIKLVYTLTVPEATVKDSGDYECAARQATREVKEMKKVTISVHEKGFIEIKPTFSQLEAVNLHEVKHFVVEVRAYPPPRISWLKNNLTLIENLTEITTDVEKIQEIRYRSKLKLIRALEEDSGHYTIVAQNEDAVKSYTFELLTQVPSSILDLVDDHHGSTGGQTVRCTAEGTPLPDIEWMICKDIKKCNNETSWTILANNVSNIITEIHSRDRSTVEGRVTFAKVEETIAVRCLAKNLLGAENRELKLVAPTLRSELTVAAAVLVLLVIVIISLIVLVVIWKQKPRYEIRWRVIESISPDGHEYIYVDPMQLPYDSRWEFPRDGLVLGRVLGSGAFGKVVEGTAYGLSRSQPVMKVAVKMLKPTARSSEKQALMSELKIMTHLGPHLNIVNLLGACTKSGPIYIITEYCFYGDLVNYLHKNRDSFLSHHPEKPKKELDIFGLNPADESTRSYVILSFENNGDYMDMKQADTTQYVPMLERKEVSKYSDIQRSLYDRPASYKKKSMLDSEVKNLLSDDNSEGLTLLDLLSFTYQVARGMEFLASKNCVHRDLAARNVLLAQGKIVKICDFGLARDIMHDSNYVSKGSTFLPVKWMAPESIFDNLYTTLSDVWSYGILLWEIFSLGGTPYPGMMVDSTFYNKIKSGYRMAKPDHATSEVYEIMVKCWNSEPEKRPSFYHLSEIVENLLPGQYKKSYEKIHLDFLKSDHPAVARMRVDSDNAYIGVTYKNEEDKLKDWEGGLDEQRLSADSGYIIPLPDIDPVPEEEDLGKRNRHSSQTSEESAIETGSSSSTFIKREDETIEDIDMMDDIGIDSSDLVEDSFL
UniProt P40238, residues 26-635: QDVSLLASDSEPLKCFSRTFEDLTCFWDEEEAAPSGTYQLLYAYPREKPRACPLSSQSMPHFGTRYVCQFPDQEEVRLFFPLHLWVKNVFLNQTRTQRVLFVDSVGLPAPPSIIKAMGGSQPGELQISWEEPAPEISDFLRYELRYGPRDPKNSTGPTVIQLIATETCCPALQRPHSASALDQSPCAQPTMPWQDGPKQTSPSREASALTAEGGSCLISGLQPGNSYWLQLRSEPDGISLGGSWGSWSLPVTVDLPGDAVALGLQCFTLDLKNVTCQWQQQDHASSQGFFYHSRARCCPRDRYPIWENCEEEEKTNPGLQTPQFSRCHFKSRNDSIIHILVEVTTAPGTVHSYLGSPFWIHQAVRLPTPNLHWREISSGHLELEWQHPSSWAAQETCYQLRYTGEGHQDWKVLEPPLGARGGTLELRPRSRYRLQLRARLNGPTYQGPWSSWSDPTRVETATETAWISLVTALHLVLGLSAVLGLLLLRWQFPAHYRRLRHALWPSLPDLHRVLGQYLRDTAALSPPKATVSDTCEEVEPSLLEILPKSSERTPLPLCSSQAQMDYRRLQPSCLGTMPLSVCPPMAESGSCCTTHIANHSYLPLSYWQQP

Experiments:
[1] = biological target: PDGFRα K385I truncated after residue R979, fused to nanoluciferase or HaloTag (UniProt P16234); assay: FRET or BRET; NanoBRET in living HEK293T cells between nanoluciferase and HaloTag (618 Ligand) fusions, 1 ng of each construct, read at 37 °C; no ligand named for these samples
[2] = biological target: PDGFRα wild type truncated after residue R979, fused to nanoluciferase or HaloTag (UniProt P16234); assay: FRET or BRET; NanoBRET in living HEK293T cells between nanoluciferase and HaloTag (618 Ligand) fusions, 1 ng of each construct, read at 37 °C; cells stimulated with PDGF-BB
[3] = biological target: platelet-derived growth factor receptor alpha (PDGFRα) K385L, HA- and MYC-tagged (UniProt P16234); assay: co-IP; HEK293T co-transfected with HA- and MYC-tagged PDGFRα; lysis in RIPA buffer; immunoprecipitation with anti-HA overnight at 4 °C, Protein A/G resin; western blot with anti-MYC; in the absence of ligand
[4] = biological target: platelet-derived growth factor receptor alpha (PDGFRα), wild type, HA- and MYC-tagged (UniProt P16234); assay: as above
[5] = biological target: PDGFRα wild type truncated after residue R979, fused to nanoluciferase or HaloTag (UniProt P16234); assay: FRET or BRET; NanoBRET in living HEK293T cells between nanoluciferase and HaloTag (618 Ligand) fusions, 1 ng of each construct, read at 37 °C; no ligand named for these samples

- binding [1]: binds
Substance: PDGFRα K385I truncated after residue R979, fused to nanoluciferase or HaloTag (from UniProt P16234 24-979) (receptor)

- binding [2]: binds
Substance: PDGFRα wild type truncated after residue R979, fused to nanoluciferase or HaloTag (from UniProt P16234 24-979) (receptor)

- binding [3]: binds
Substance: platelet-derived growth factor receptor alpha (PDGFRα) K385L, HA- and MYC-tagged (from UniProt P16234 24-1089)

- binding [4]: binds weakly
Substance: platelet-derived growth factor receptor alpha (PDGFRα), wild type, HA- and MYC-tagged (from UniProt P16234 24-1089)

- binding [1]: no binding
- binding [5]: no binding
Substance: thrombopoietin receptor (TPOR) fused to nanoluciferase or HaloTag (from UniProt P40238 26-635)
